From PubChem BioAssay AID1745853 (National Center for Advancing Translational Sciences (NCATS), 2022) come the findings set out here.

Common to all, as to assay: Primary Screen for Target Class Profiling of Small Molecule Inhibitors of Methyltransferases
Assay [1] addresses Glycine N-methyltransferase (Homo sapiens) (UniProt Q14749). The following applies: purified enzyme, MTase-Glo SAH luminescence; measured here: GNMT inhibition; at 40 µM; stronger effect = lower value. An outline of the steps:
(§1)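 Each enzyme was reacted with SAM and its substrate, with compounds tested once at 40 uM; SAH formed was read by MTase-Glo luminescence.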

Assay [2] deals with Guanidinoacetate N-methyltransferase (Homo sapiens) (UniProt Q14353). The following applies: purified enzyme, MTase-Glo SAH luminescence; measured here: GAMT inhibition; at 40 µM; stronger effect = lower value. An outline of the steps: as §1
Assay [3] concerns the target Histamine N-methyltransferase (Homo sapiens) (UniProt P50135). The following applies: purified enzyme, MTase-Glo SAH luminescence; measured here: HNMT inhibition; at 40 µM; stronger effect = lower value. An outline of the steps: as §1
Assay [4] has as its target Nicotinamide N-methyltransferase (Homo sapiens) (UniProt P40261). The following applies: purified enzyme, MTase-Glo SAH luminescence; measured here: NNMT inhibition; at 40 µM; stronger effect = lower value. An outline of the steps: as §1
Assay [5] deals with Phenylethanolamine N-methyltransferase (Homo sapiens) (UniProt P11086). Conditions: purified enzyme, MTase-Glo SAH luminescence; measured here: PNMT inhibition; at 40 µM; stronger effect = lower value. An outline of the steps:
as §1

The structures appear in SMILES notation. Several values for one entry are separate records, joined by “and”; a condition that tells them apart may be missing. Equal values may be shown once. Some of the results follow. These are further read-outs of the screen, such as a control signal, another cell line or another target. No call is given for them.
On the % scale 0 is the no-effect control and ±100 the full control effect.

`CC(C)NC(=O)C[C@@H]1C[C@H]2O[C@H](CNC(=O)NCc3ccccc3)[C@@H](O)[C@H]2O1`: the activity change, negative = inhibition in assay [1] was 1.18%; in assay [2], 0.955%; in assay [3], 2.29%; in assay [4], -2.51%; in assay [5], 3.27%.

`CCc1cccc(NC(=O)N2CC(c3nnc(C(C)C)o3)C3(CCOCC3)C2)c1` (stereo not drawn): the activity change, negative = inhibition in assay [1] was -5.32%; in assay [2], -2.54%; in assay [3], -1.47%; in assay [4], -5.17%; in assay [5] it was -5.27%.

Take `CCOC(=O)c1sc(NC(=O)[C@H](C(C)C)n2c(=O)[nH]c3ccccc3c2=O)nc1C`: the activity change, negative = inhibition in assay [1] is 3.78%; in assay [2] it was 6.56%; in assay [3], 4.59%; in assay [4], -17.8%; in assay [5], -2.9%.

Consider `O=[S+]([O-])(Nc1ccccc1)c1ccc2c(c1)OCCN(Cc1nccs1)C2`, for which the activity change, negative = inhibition was -9.63% in assay [1]; -7.53% in assay [2]; -4.02% in assay [3]; -16.8% in assay [4]; -6.21% in assay [5].

As to `COC(=O)C1=C(C)NC(C)=C(C(=O)O[C@@H]2CCCN(Cc3ccccc3)C2)[C@@H]1c1cccc([N+](=O)[O-])c1`, the activity change, negative = inhibition is -1.94% in assay [1]; -23.9% in assay [2]; -11.6% in assay [3]; -34.6% in assay [4]; -17% in assay [5].

`CCc1cc2c(cc3n2CC(C)(C(=O)NC2CCCCCC2)N(c2cc(C)cc(C)c2)C3=O)s1` (stereo not drawn): the activity change, negative = inhibition stood at 6.48% in assay [1]; 4.08% in assay [2]; 7.42% in assay [3]; 11.5% in assay [4]; 3.4% in assay [5].

On to `CCc1cc2c(cc3n2CC(C)(C(=O)NC2CCC(C)CC2)N(CC(C)c2ccccc2)C3=O)s1` (stereo not drawn), for which the activity change, negative = inhibition in assay [1] was 0.147%; in assay [2], 4.94%; in assay [3] it was -2.51%; in assay [4], 0.455%; in assay [5] it was -2.45%.

In the case of `CCCN1C(=O)c2cc3sccc3n2CC1(C)C(=O)NC1CCCCCC1` (stereo not drawn), the activity change, negative = inhibition in assay [1] was -2.48%; in assay [2], 3.46%; in assay [3] it was -2.26%; in assay [4], -4.83%; in assay [5], -7.31%.

Consider `Cn1nnnc1C1CCCN(C(=O)CCC2CCCC2)C1` (stereo not drawn), for which the activity change, negative = inhibition was -4.52% in assay [1]; -4.63% in assay [2]; -1.69% in assay [3]; -8.55% in assay [4]; -7.77% in assay [5].

Consider `COc1ccc(CN2C(=O)[C@H](OC)[C@@H]2C2=CCN(C(=O)CC(C)C)CC2)cc1`, for which the activity change, negative = inhibition is -4.77% in assay [1]; -10.9% in assay [2]; -4.81% in assay [3]; -13% in assay [4]; -10.3% in assay [5].

As for `CNC(=O)Nc1ccc(C)n(CC(=O)N2CCN(c3cc(C)ccc3C)CC2)c1=O`, the activity change, negative = inhibition in assay [1] is -2.07%; in assay [2], -0.167%; in assay [3], 0.216%; in assay [4], 0.14%; in assay [5], 1.63%.

On to `CCC[C@@H]1C[C@@H](C(=O)N[C@@H]([C@H]2O[C@H](SC)[C@H](O)[C@@H](O)[C@H]2O)[C@H](C)Cl)N(C)C1`, for which the activity change, negative = inhibition in assay [2] is 9.67% and 0.97%; in assay [4] it was -4.53% and -7.69%; in assay [5], 5.49% and -4.6%.

For the compound `O=S(=O)(c1ccccc1C(F)(F)F)N1CC(c2nc(-c3ccncc3)no2)C1`, the activity change, negative = inhibition was -4.59% in assay [1]; -0.78% in assay [2]; -1.66% in assay [3]; -8.63% in assay [4]; -6.54% in assay [5].

Take `COc1cc(OC)c(NC(=O)N2CCn3cccc3C2Cc2ccccc2)cc1Cl` (stereo not drawn): the activity change, negative = inhibition in assay [1] was -18.3%; in assay [2] it was -0.065%; in assay [3], -19%; in assay [4], -27.6%; in assay [5], -17.3%.

As to `CC(=O)OC/C(=C/C(=O)O)CC[C@@H]1C(C=O)=CC[C@@H]2C(C)(C)CCC[C@@]12C`, the activity change, negative = inhibition in assay [1] was -12.9%; in assay [2] it was -0.112%; in assay [3], 1.9%; in assay [4], -17.8%; in assay [5], -3.65%.

For `Cc1ccc(-c2c(C(=O)CF)n(CCCO)c3ncnc(N)c23)cc1`, the activity change, negative = inhibition in assay [1] was -3.07%; in assay [2], 4.73%; in assay [3], 7.08%; in assay [4] it was -26.1%; in assay [5], -5.35%.
